{"source": "PubChem BioAssay AID686970", "about": "(National Center for Advancing Translational Sciences (NCATS), 2013)", "note": "In all, about 360,000 compounds went through this assay and about 6,000 (1.7%) were called active. The shares of active, inactive and inconclusive entries below differ from those in the screen. Calls follow the shape of the dose curve; as a rule, active = well fitted cell-killing curve with a large enough effect; inconclusive = small, poorly fitted or top-dose-only effect, or effect the other way; inactive = flat fitted curve, though single readings scatter. Potencies of inconclusive entries are left out as doubtful fits. Potency is read from the fitted curve at half-maximal effect; tags tell the direction and shape of the fitted curve.", "data": [{"assay": "qHTS for induction of synthetic lethality in tumor cells producing 2HG: qHTS for the HT-1080-NT fibrosarcoma cell line;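 also: NT is the 2HG producing partner of a matched IDH1 knockdown line; nearly all actives have a fitted effect of over 55% in size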;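 as to activity, negative = less viability: 0% = DMSO-treated cells and -100% = media-only wells without cells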", "conditions": "HT-1080-NT fibrosarcoma viability, CellTiter-Glo ATP luminescence, 48 h; activity, negative = less viability: at 46.1 µM (top of the series) unless noted", "how_it_was_run": "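750 cells/well, RPMI + 5% FBS; 2 h settle, compound pin-transfer, 48 h at 37 degrees C. CellTiter-Glo 10 min RT, luminescence. Normalized to DMSO and media-only wells.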", "values": [{"smiles": "O=C(c1ccc(Cl)c([N+](=O)[O-])c1)N(c1ccccn1)c1ccccn1", "Potency": "inactive"}, {"smiles": "Cc1ccc(-c2c[n+](Cc3ccc(Cl)c(Cl)c3)c3n2CCC3)cc1", "Potency": "inconclusive [cytotoxic, partial curve]"}, {"smiles": "C/C=C(\\C)C(=O)OC1CC(C)(C)C[C@H]2C3=CC[C@@H]4[C@@]5(C)CCC(O[C@@H]6O[C@@H](C(=O)O)[C@@H](O)C(O[C@@H]7OC[C@H](O)[C@@H](O)[C@@H]7O[C@@H]7OC(CO)C(O)[C@@H](O)[C@@H]7O)C6O[C@@H]6OC(CO)C(O)C(O)C6O)[C@@](C)(CO)[C@@H]5CC[C@]4(C)[C@]3(C)CC(O)[C@@]12CO", "note": "(some centres not stated)", "Potency": "inconclusive [cytotoxic, single point]"}, {"smiles": "Nc1nc(CN2CCN(c3ccc(F)cc3)CC2)nc(N2CCCc3ccccc32)n1", "Potency": "inconclusive [cytotoxic, single point]"}, {"smiles": "c1ccc2c(-c3[nH]ncc3CNCCCn3ncc4ccccc43)cccc2c1", "Potency": "inconclusive [cytotoxic, partial curve]"}, {"smiles": "Oc1[nH]c2ccccc2c1N=Nc1nncc2ccccc12", "Potency": "inconclusive [cytotoxic, single point]"}, {"smiles": "Nc1cccc(NC(=O)c2ccco2)c1", "Potency": "inactive"}, {"smiles": "Cc1ccccc1C(=O)Nc1cc(-c2cc(C(C)(C)C)oc2C)nn1C", "Potency": "inconclusive [cytotoxic, single point]"}, {"smiles": "CCCCn1nc(C(=O)N[C@@H](CCSC)c2nc3ccccc3[nH]2)c2ccccc2c1=O", "activity, negative = less viability": "inconclusive: -32.6% [cytotoxic]"}, {"smiles": "Cn1cncc1C#Cc1c(C=O)n(C)c2ccccc12", "Potency": "inconclusive [cytotoxic, single point]"}, {"smiles": "CCC(=O)N1CCN(c2ccc(NC(=O)COc3ccccc3Cl)cc2)CC1", "Potency": "inconclusive [cytotoxic, single point]"}, {"smiles": "CCCC(C)(C)C(=O)N1CCC1(C)C(=O)Nc1ccc(OC)c(OC)c1", "note": "(configuration not stated)", "activity, negative = less viability": "inconclusive: 12.8%"}, {"smiles": "COc1ccc(C(=O)CSC#N)cc1OC", "Potency": "inconclusive [cytotoxic, single point]"}, {"smiles": "CS(=O)(=O)c1ncc(CO)n1Cc1ccccc1", "Potency": "inactive"}, {"smiles": "Cc1nn(CC(O)CN2c3ccccc3Sc3ccccc32)c(C)c1Br", "note": "(configuration not stated)", "Potency": "inconclusive [cytotoxic, single point]"}, {"smiles": "Cc1cc(C(=O)Nc2cccc(S(=O)(=O)N3CCOCC3)c2)c2ccccc2n1", "Potency": "inactive"}, {"smiles": "Cc1ccc(N(CC(=O)Nc2ccc(F)c(Cl)c2)S(=O)(=O)c2c(C)noc2C)cc1", "Potency": "inconclusive [cytotoxic, single point]"}, {"smiles": "Cc1ccc(C(=O)NCC(=O)OCc2nnc(-c3ccc([N+](=O)[O-])cc3)o2)s1", "Potency": "inactive"}, {"smiles": "COc1cc(CNC[C@H]2O[C@@H](n3ccc(N)nc3=O)[C@H](O)[C@@H]2O)ccc1OCc1cccc(Cl)c1", "Potency": "inactive"}, {"smiles": "COCC(=O)N1CCC(Oc2ccc(C(=O)N3CCCCC3COC)cc2)CC1", "note": "(configuration not stated)", "activity, negative = less viability": "inconclusive: 17.3%"}, {"smiles": "O=C(CC1C[C@H](C(=O)N2CCOCC2)[C@@]2(CCC3CCCC3)c3[nH]c4ccccc4c3CCN2C1=O)NCc1ccco1", "note": "(some centres not stated)", "Potency": "inactive"}, {"smiles": "C=C1CCC[C@]2(C)C[C@H]3OC(=O)C(CNC(CC)CO)[C@H]3CC12", "note": "(some centres not stated)", "Potency": "inconclusive [cytotoxic, partial curve]"}, {"smiles": "CCOc1ccc(/C=C2\\SC(=S)N(CCCC(=O)NCCCN3CCOCC3)C2=O)cc1", "Potency": "inconclusive [cytotoxic, single point]"}, {"smiles": "C=CCN1C(=O)CS/C1=N/c1nccs1", "Potency": "inconclusive [cytotoxic, partial curve, poor fit]"}, {"smiles": "COc1ccc(-n2c(C)cc(C(=O)COC(=O)c3ccc(O)cc3O)c2C)cc1", "Potency": "inconclusive [cytotoxic, single point]"}, {"smiles": "Cc1cccc(NS(=O)(=O)c2ccc(C)c(C(=O)OCC(=O)Nc3cc(C)on3)c2)c1", "Potency": "inconclusive [cytotoxic, partial curve]"}, {"smiles": "Cc1cccc(NC(=O)Cn2c(O)c(N=NC(N)=S)c3ccccc32)c1", "Potency": "inconclusive [cytotoxic, partial curve]"}, {"smiles": "CN1CCN(/N=C/c2ccc(-c3ccccc3)cc2)CC1", "Potency": "inactive"}, {"smiles": "Oc1ccccc1-c1cc(-c2ccc3c(c2)OCCO3)n[nH]1", "Potency": "inconclusive [cytotoxic, single point]"}, {"smiles": "NNc1nnc2c3cc(F)ccc3n(Cc3ccccc3)c2n1", "Potency": "inconclusive [cytotoxic, partial curve]"}, {"smiles": "Nc1ccc(S(=O)(=O)NNC(=O)C(=O)NNc2ccccc2)cc1", "Potency": "active: 10.3 µM"}, {"smiles": "CCc1nc2c(OCc3ccc(Cl)cc3Cl)cccn2c1N(C)C(=O)CC(C)C", "Potency": "active: 25.9 µM"}, {"smiles": "Cc1ccc(CNc2nc(NCc3ccccc3)nc3ccsc23)c(C)c1", "Potency": "active: 25.9 µM"}, {"smiles": "O=C(N/N=C/C(Br)=C/c1ccccc1)c1cnccn1", "Potency": "inconclusive [cytotoxic, single point]"}, {"smiles": "O=C(COc1cccnc1[N+](=O)[O-])Nc1ccc2c(c1)CCC2", "activity, negative = less viability": "inconclusive: 31.3%"}, {"smiles": "CNCCC=C1c2ccccc2C=Cc2ccccc21", "Potency": "active: 20.6 µM"}, {"smiles": "C=CCC[C@@H](Cc1ccc(F)cc1)C(=O)OC[C@@H](NC(=O)[C@@H](CC=C)CC(=O)N(CCO)Cc1ccccc1)c1ccccc1", "Potency": "active: 20.6 µM"}, {"smiles": "Clc1ccccc1/C=N/NC1=Nc2cccc3cccc1c23", "Potency": "inconclusive [cytotoxic, single point]"}, {"smiles": "CCOC(=O)c1sc(NC(=O)c2cc(-c3ccc(C)cc3)nc3ccccc23)c(C#N)c1C", "Potency": "active: 16.4 µM"}, {"smiles": "COc1ccc(OC)c(-n2nnnc2SCC(=O)Nc2ccc3c(c2)OCCO3)c1", "Potency": "inconclusive [cytotoxic, single point]"}, {"smiles": "CCOC(=O)[C@]12CCCC=C1N(Cc1ccccc1)C(=O)[C@H](CC(=O)NCc1cccc3ccccc13)C2", "Potency": "inconclusive [cytotoxic, single point]"}, {"smiles": "COc1cc(Nc2ccn3nc(-c4ccccc4Cl)cc3n2)cc(OC)c1OC", "Potency": "active: 23.1 µM"}]}]}
